Experimental data from the supplement of paper PMC7826260.
The list shows a part of the results. Cleavage of a single-stranded DNA pool by Rep nickase domains was read by sequencing at 3 µM enzyme and 37 °C for 1 h; the strands have 90 letters, of which the middle is given. Numbers give uncut DNA relative to the enzyme-free pool, as log2; strong cutting gives strongly negative numbers. There is no active / inactive call. Counts are relative to all reads; uncut strands gain when others are lost, and binding without cutting may add a little.

System: T1, Rep nickase domain of maize striate mosaic virus
T1 sequence (residues 1-117, tag not shown): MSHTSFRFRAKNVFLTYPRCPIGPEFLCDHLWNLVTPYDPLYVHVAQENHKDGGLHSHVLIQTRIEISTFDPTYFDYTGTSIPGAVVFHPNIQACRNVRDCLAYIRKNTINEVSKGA
Assay: uncleaved DNA left, log2 of reads against the no-enzyme library (log2 ratio); higher = less cleavage (more negative = more Rep cleavage of the k-mer); sequences stand for … in CTCGTCCG…ACCGGAGA
Procedure: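 A pool of 90-nt single-stranded DNAs with seven random bases just before the constant AC of the nick site (name = the seven bases) was cut by 3 µM recombinant His6-SUMO-tagged Rep nickase domain (300 nM DNA, 50 mM HEPES pH 8.0, 50 mM NaCl, 1 mM MnCl2, 1 h, 37 °C, three replicates). Uncut DNA was amplified and sequenced.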

| Sequence | uncleaved DNA left (log2) |
| --- | --- |
| CCGCCTC | 0.0401 |
| GTCCGCT | 0.6 |
| AATTCCG | -0.943 |
| GATAAAG | -0.826 |
| CTCCGCA | -0.61 |
| GCTCAAG | -0.985 |
| GCCGATA | 0.341 |
| AATCTTT | -0.628 |
| AGTCCCC | 1.27 |
| TGTTTCG | -1.1 |
| CAAGCTA | 1.12 |
| CTGATAT | -0.205 |
| CCTTTTC | -0.886 |
| CGATCGA | -0.758 |
| CGGTATT | 0.66 |
| GGTCTGT | 1.63 |
| CAGTATA | -0.455 |
| AAGTTGG | -1.06 |
| GGATGGC | 1.42 |
| TGATTTA | 0.161 |

| Sequence | uncleaved DNA left (log2) |
| --- | --- |
| AAGATAA | 0.113 |
| TGCCGGG | 0.522 |
| CTTCGGC | -0.546 |
| AGCCCGA | 0.707 |
| AATTAAG | -0.912 |
| CGGCCGA | -0.274 |
| GAAACCC | 0.6 |
| GACAGCT | -0.211 |
| GTTCAAA | 1.76 |
| CACTACA | -0.904 |
| TCCATCC | -0.593 |
| GTGCGAG | 0.254 |
| CTGTCAA | -0.432 |
| CGAATTA | -0.429 |
| CTGAAAC | -0.422 |
| GCGAACT | 1.19 |
| TGGTGGT | 1.04 |
| TGCGTAT | -0.872 |
| ATCTCCC | 0.811 |
| ATCTGCG | 1.36 |
